# Test results from ChEMBL document CHEMBL1156829.
# Over roughly 5,400 compounds, “IFI” has its median near 2; the highest 2% begin near 22. The list shows a part of the results.
# Experiment: NOVARTIS: Inhibition Frequency Index (IFI) - the number of HTS assays where a compound showed > 50% inhibition/induction, expressed as a percentage of the number of assays in which the compound was tested.
# Type: functional
row,SMILES,IFI [%]
1,O=C(O)CS(=O)(=O)c1ccc(C(=O)NCC(c2cccnc2)N2CCOCC2)cn1 (stereo not drawn),1.37
2,CCOC(=O)c1c(NC(=O)C(C)Sc2ncnc3c2oc2ccccc23)sc2c1CCC2 (stereo not drawn),8.57
3,CCC(=O)N1CCc2cc(S(=O)(=O)N3CCN(c4cccc(C(F)(F)F)c4)CC3)ccc21,5.71
4,CCCCC(CC)C(=O)N1CCN(C(CC)c2nc3ccccc3c(=O)n2C)CC1 (stereo not drawn),0
5,O=C(CCl)Nc1ccc(N2CCCCCC2)cc1,0
6,O=C(Nc1ccc(F)c(Cl)c1)c1c2c(nc3ccccc13)CCN(Cc1ccccc1)C2,3.03
7,CCOC(=O)c1ccc(N2C(=O)c3[nH]nc(C)c3C2c2ccccc2OC)cc1 (stereo not drawn),0
8,FC(F)(F)c1cccc(-c2cc(NCCCn3ccnc3)nc(-c3ccncc3)n2)c1,2.04
9,CCN1CCN(Cc2ccc(N(CC)CC)cc2)CC1,0
10,CCCCOc1cccc(C(=O)N(Cc2cccs2)c2ccc(OC)cc2)c1,0
11,O=C1CC(c2ccccc2)CC2=C1C(c1cccc(Cl)c1Cl)Nc1ccccc1N2 (stereo not drawn),4.71
12,CC(C)N1CCc2c(sc(NC(=O)C(C)(C)C)c2C(N)=O)C1,0
13,CC(C)(C)c1nn(-c2ccc(Cl)cc2)c2[nH]c(=O)c(CNCc3ccccc3)cc12,2.56
14,Cc1ccn2c(NC(C)(C)CC(C)(C)C)c(-c3ccccc3OC(=O)c3ccc(Cl)cc3)nc2c1,3.74
15,CCCCn1c(=N)c(C(=O)NC(C)c2ccccc2)cc2c(=O)n3cccc(C)c3nc21 (stereo not drawn),0
16,CC(C)C[C@H](NC(=O)N1CCOCC1)C(=O)N[C@H](/C=C/S(=O)(=O)c1ccccc1)CCc1ccccc1,4.44
17,CCCCCCc1cc2cc(-c3nc4ccccc4[nH]3)c(=Nc3ccccc3C)oc2cc1O,0
18,c1cc(C2=NCCN2)ccc1OCCCOc1ccc(C2=NCCN2)cc1,1.83
19,COc1cccc(CCNC(=O)c2ccc(OC3CCN(CC(c4ccccc4)c4ccccc4)CC3)c(OC)c2)c1,2.82
20,Cc1ccc(C(C(=O)NC2CCCCC2)N(C(=O)Cn2nnc3ccccc32)c2ccc(S(=O)(=O)NCC3CCCO3)cc2)o1 (stereo not drawn),1.8
21,CCN(CC)CCCN(Cc1cc2c(C)cc(C)cc2[nH]c1=O)C(=S)NCCCN(C)C,2.54
22,CN1CCN(c2ccc(Nc3ccnc4cc(Cl)ccc34)cc2Cl)CC1,8.33
23,Cc1ccc(Nc2nc(NN=Cc3ccc(-c4ccc(Cl)c([N+](=O)[O-])c4)o3)nc(N3CCOCC3)n2)c(Br)c1,0
24,c1ccc2c(c1)CSc1sccc1C2=C1CCNCC1,0
25,CCCc1ccc(C(=O)NC(=O)c2ccccc2O)cc1,6.11

row,SMILES,IFI [%]
1,Cn1nc(C(F)(F)F)c(-c2ccc(Br)cc2)c1NC(=O)Nc1ccc(F)cc1F,0.84
2,O=C1C(Sc2nnc[nH]2)=CC(=NS(=O)(=O)c2cccs2)c2ccccc21,25
3,O=C(c1ccc(Cl)cc1Cl)N1CCCC(C(F)(F)F)C1 (stereo not drawn),0
4,CCCOC(=O)C1=C(C)NC2=C(C(=O)CC(c3ccc(OC)cc3)C2)C1c1cccc(Cl)c1Cl (stereo not drawn),7.14
5,COc1ccc(C2CC(=O)C3=C(C2)NC(C)=C(C(=O)OC2CCCC2)C3c2ccccc2OC)cc1OC (stereo not drawn),2.38
6,N#C/C(=C\c1cn(Cc2ccc(Cl)cc2Cl)c2ccccc12)c1nc2ccccc2[nH]1,0
7,CCOC(=O)C1=C(C)NC2=C(C(=O)CC(c3ccccc3)C2)C1c1ccccc1Cl (stereo not drawn),5.95
8,O=C1/C(=C/c2ccccc2)SC(=Nc2ccccc2)N1C1CCCCC1,4.6
9,Cc1ccccc1NC(c1cccc(Cl)c1)c1nnnn1C1CCCCC1 (stereo not drawn),0
10,O=C(Cn1ccc(=NCc2ccccc2)cc1)c1cccc([N+](=O)[O-])c1,0
11,Cc1ccc(NC(=O)C2CC3c4ccccc4C2c2ccccc23)cc1 (stereo not drawn),0
12,COc1cc(-c2nc3ccc(N4CCN(C)CC4)cc3[nH]2)cc(OC)c1OC,6.02
13,COC(=O)C1=C(C)NC2=C(C(=O)CC(C)(C)C2)C1c1ccccc1[N+](=O)[O-] (stereo not drawn),2.3
14,CC(C)(C)c1ccc(C(=O)Nc2ccc(NC(=O)c3ccc(-c4ccc([N+](=O)[O-])cc4)o3)cc2)cc1,0
15,COc1cccc2c1C(=O)c1c(O)c3c(c(O)c1C2=O)C[C@@](O)(C(=O)CO)C[C@@H]3O[C@@H]1C[C@H](N)[C@H](O)[C@H](C)O1,25.6
16,CC[n+]1c(/C=C2\C=C(C)CC(C)C2)sc2ccccc21 (stereo not drawn),7.14
17,Cc1cc(C)c(C(Nc2ccccn2)c2ccc3cccnc3c2O)c(C)c1 (stereo not drawn),9.52
18,CCS/C(Cl)=C(/NC(=O)c1ccccc1)[P+](c1ccccc1)(c1ccccc1)c1ccccc1,3.57
19,COCCN1Cc2cccc(C(=O)Nc3ccc4c(c3)OCCO4)c2C1=O,0
20,CCOC(=O)C1=C(c2ccccc2)N=c2sc(=Cc3c(C)n(Cc4ccc(F)cc4)c4ccccc34)c(=O)n2C1c1cccc(OC)c1OC (stereo not drawn),4.6
21,Cc1ccccc1N=Nc1ccc(NC(=O)c2ccco2)c(C)c1,3.79
22,CSc1nnc(NC(=O)C2CC2)s1,0
23,CCOC(=O)C1=C(c2ccccc2)N=c2sc(=Cc3cc(OC)c(OC)c(OC)c3)c(=O)n2C1c1c(OC)ccc2ccccc12 (stereo not drawn),3.49
24,C=CCOc1ccccc1CN1CCN(c2ccccn2)CC1,2.98
25,CCCCNC(=O)CCCNC(=O)Cn1cnc2sc3c(c2c1=O)CCCC3,3.53

row,SMILES,IFI [%]
1,COc1ccc(CCN(Cc2ccc(Cl)cc2)S(=O)(=O)c2ccc(S(N)(=O)=O)cc2)cc1OC,1.85
2,NNC(=O)CNC(c1ccccc1)c1cc(Br)ccc1NC(=O)c1ccccc1Br (stereo not drawn),3.08
3,CC[n+]1c(/C=C/c2ccc(N(C)C)cc2)sc2cc(NC(C)=O)ccc21,4.69
4,COc1cc(NC(C)CCCN(Cc2ccc(N(C)C)cc2)C(=O)C(Cl)Cl)c2ncccc2c1 (stereo not drawn),4.67
5,CCN1C=C/C(=C\c2cccc[n+]2C)c2ccccc21,0
6,COc1ccc2c(ccc(/C=C3\C=CC=CN3C)[n+]2C)c1,6.67
7,CC(C)CNc1nc(NCCCN2CCCCC2C)ncc1C(=O)NCc1ccccc1 (stereo not drawn),3.92
8,CC(C)CNc1nc(NCCCN)ncc1C(=O)NCCc1ccccc1,1.91
9,CSc1oc(-c2ccccc2)nc1C(N)=O,0
10,CC(C)CN(CC(=O)N1CCC(Nc2nsc3ccccc23)C1)S(C)(=O)=O (stereo not drawn),20.8
11,COc1ccc2c(c1)sc1nc(C)c(C)c(C)[n+]12,2.76
12,CCc1c(C)c(C#N)c2nc3ccccc3n2c1NCc1ccccc1,5
13,CCOc1ccc(Nc2nc(NCc3ccccc3)c3ccccc3n2)cc1,7.14
14,COc1ccc(OC)c(NC(=O)CSc2nc(NCc3ccc(Cl)cc3)c3ccccc3n2)c1,2.22
15,CCOC(=O)CCCCC(=O)c1[nH]c(=O)[nH]c1Cn1ccnc1,1.46
16,Nc1nc(N)c2cc(S(=O)(=O)c3ccc4ccccc4c3)ccc2n1,12.4
17,CCOc1ccc2cc(C#N)c(SCC(=O)N3CC(=O)Nc4ccccc43)nc2c1,0
18,CC1CCCCN1CCCNCc1ccc(OCc2ccccc2)cc1 (stereo not drawn),6.48
19,OC(CNc1cccc2ccccc12)Cn1c2ccccc2c2ccccc21 (stereo not drawn),3.68
20,CCC(C)NC(=O)c1nn(-c2cccc(OC)c2)c(=O)c2ccccc12 (stereo not drawn),0
21,N#CCSc1ncccc1C(=O)NCCc1ccc(Oc2ccccc2)cc1,2.78
22,CCCCc1ccc(C(=O)Oc2ccccc2-c2nc3cc(C)ccn3c2NC(C)(C)CC(C)(C)C)cc1,5.26
23,Cc1cc(NC(=O)c2ccc(Br)cc2)no1,0
24,CCc1nc2nc(C)cc(Nc3ccc(C)c(F)c3)n2n1,1.82
25,COc1ccc2c(c1)[nH]c1c(N3CCN(C(c4ccccc4)c4ccccc4)CC3)ncnc12,8.77

row,SMILES,IFI [%]
1,O=C(CCC1CCCC1)NC1CCC(Nc2ccnc3cc(Cl)ccc23)CC1 (stereo not drawn),0.901
2,CN1CCN(c2ccc(Nc3c4ccccc4nc4ccccc34)cc2)CC1,15.6
3,Cc1cnc(C)c(-c2ccc(O)c(CNCC3(N4CCCCC4)CCCCC3)c2)n1,0.971
4,COc1cc(N)c(Cl)cc1C(=O)NCC1CCN(c2nc(C)cc(C)n2)CC1,0
5,C[N+]1(CC(=O)NNc2c3ccccc3nc3ccccc23)CCOCC1,7.14
6,Cc1cc([N+](=O)[O-])ccc1-c1ccc(C(=O)Nc2ccc(-c3nc4ccccc4[nH]3)cc2)o1,0
7,CN(CCCNc1ccnc2cc(Cl)ccc12)C(=O)c1cccc(Br)c1,1.87
8,CCSC1=CC(=O)c2ccccc2C1=O,24.3
9,Cc1cccc(NC(=O)c2ccc3ccccc3n2)n1,3.23
10,CC(C)CC(N)C(=O)N1CCn2c(nc(-c3ccccc3)c2Nc2ccc3c(c2)OCO3)C1 (stereo not drawn),4.11
11,C=C(C)CSc1nc(N)c2c3c(sc2n1)CN(CCC)CC3,14
12,C[N+](C)(C)c1ccc2cc(Br)c3ccccc3c2c1,0
13,O=C(Nc1cccc(-c2nc3ccccc3[nH]2)c1)c1ccccc1[N+](=O)[O-],4.88
14,O=C1CSC(=S)N1c1cccc(Cl)c1,3.08
15,COc1ccc(NC(=O)CCCCCn2c(SCC(=O)NCCc3ccc(OC)c(OC)c3)nc3ccsc3c2=O)cc1,0
16,O=C1C(NC2CCCC2)=C(N2CCCCC2)C(=O)c2ccccc21,15.4
17,CC(C)N(CC(=O)Nc1cc(C(C)(C)C)nn1-c1ccc(Cl)c(Cl)c1)C(=O)c1ccc2ccccc2c1,2.86
18,CCOC(=O)c1c(-c2ccc3c(c2)OCO3)[nH]c2cc(OC)ccc2c1=O,0
19,CC(=O)N(C1=C(N(C)C)C(=O)c2ccccc2C1=O)c1cc(C)cc(C)c1,15.4
20,COc1ccc(Br)cc1S(=O)(=O)N1CCCc2ccccc21,1.54
21,O=C(Nc1ccc(Cl)c(Cl)c1)Nc1cc(C(=O)NCCCN2CCCCCC2)ccc1Cl,5.71
22,O=S(=O)(NCCCCNc1ccnc2cc(Cl)ccc12)c1ccc(F)cc1,1.85
23,COc1ccc(OC)c(-c2ccc(C(=O)N3CCN(C/C=C/c4ccccc4)CC3)c(N(C)C)n2)c1,2.54
